Reference: PubChem BioAssay (NCATS)
The inconclusive results got no clear call from the source; some entries with a clear call stand among them for comparison. No potency is given beside an inconclusive call; the fits are too rough. Calls of active or inactive are those of the source. Calls follow the shape of the dose curve; as a rule, active = well fitted curve in the direction sought with a large enough effect; inconclusive = small, poorly fitted or top-dose-only effect, or another doubt; inactive = no such curve, though single readings can be large; an effect the other way counts as inactive or inconclusive.

Assay: qHTS of pediatric cancer cell lines to identify multiple opportunities for drug repurposing: Primary screen for OHS-50 cells (AID 1347103); also: nearly all actives have a fitted effect of over 40% in size;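 as to activity change, negative = cytotoxic: plate controls were DMSO neutral control for no effect and bortezomib positive control for full effect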
Conditions: OHS-50 osteosarcoma viability, CellTiter-Glo luminescence, 48 h; series mostly up to 57.3 µM; activity change, negative = cytotoxic: at the top concentration
How it was run: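 Cells (500-1,000/well) rested 5 h, then received compounds for 48 h; metabolically active cells were measured by CellTiter-Glo luminescence. Final concentrations spanned up to 46 µM (MIPE, 11-point) or 0.59 nM-46 µM (NPC, 8-point) in primary screens, 11-point in follow-ups.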
Potency is read from the fitted curve at half-maximal effect; tags tell the direction and shape of the fitted curve.

Row | Compound | Potency | activity change, negative = cytotoxic
1 | Cc1cc(NC(=O)Nc2ccc(N(C)C)cc2)c2cc(F)cc(F)c2n1 | inconclusive [cytotoxic, partial curve] | –
2 | CC1=C(C/C=C(\C)CCC[C@H](C)CCC[C@H](C)CCCC(C)C)C(=O)c2ccccc2C1=O | inconclusive [cytotoxic, partial curve, poor fit] | –
3 | CC(CN1c2ccccc2Sc2ccccc21)N(C)C (stereo not drawn) | inconclusive [cytotoxic, single point] | –
4 | CCN1CCN(Cc2ccc(-c3cc4c(N[C@H](C)c5ccccc5)ncnc4[nH]3)cc2)CC1 | active: 0.153 µM | –
5 | COCC(=O)O[C@]1(CCN(C)CCCc2nc3ccccc3[nH]2)CCc2cc(F)ccc2[C@@H]1C(C)C | active: 21.9 µM | –
6 | NC(N)=NN=C(/C=C/c1ccc([N+](=O)[O-])o1)/C=C/c1ccc([N+](=O)[O-])o1 | inconclusive [cytotoxic, single point] | –
7 | O=C(O)c1ccc(Nc2ncc3c(n2)-c2ccc(Cl)cc2C(c2c(F)cccc2F)=NC3)cc1 | inconclusive [cytotoxic, full curve] | –
8 | CN1C(C(=O)Nc2ccccn2)=C(O)c2sc(Cl)cc2S1(=O)=O | – | inactive: 17.8%
9 | Oc1c(I)cc(I)c2cccnc12 | inconclusive [cytotoxic, partial curve, poor fit] | –
10 | Clc1ccc(Nc2nnc(Cc3ccncc3)c3ccccc23)cc1 | inconclusive [cytotoxic, partial curve] | –
11 | CN(C)CCOc1ccc(C(=C(CCCl)c2ccccc2)c2ccccc2)cc1 | inconclusive [cytotoxic, single point] | –
12 | CC1=C(CC(=O)O)c2cc(F)ccc2C1=Cc1ccc(S(C)=O)cc1 (stereo not drawn) | inconclusive [cytotoxic, single point] | –
13 | CC1(C)O[C@@H]2C[C@H]3[C@@H]4CCC5=CC(=O)CC[C@]5(C)[C@@]4(F)[C@@H](O)C[C@]3(C)[C@]2(C(=O)CCl)O1 | inconclusive [cytotoxic, partial curve, poor fit] | –
14 | COc1cc(Cl)cn2c(-c3cccc(NC4CNC4)n3)cnc12 | active: 12.2 µM | –
15 | COc1cc2ncnc(Nc3cccc(Cl)c3)c2cc1OC | active: 24.3 µM | –

Assay: qHTS of pediatric cancer cell lines to identify multiple opportunities for drug repurposing: Primary screen for RD cells (AID 1347104); also: nearly all actives have a fitted effect of over 55% in size;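 as to activity change, negative = cytotoxic: plate controls were DMSO for no effect and bortezomib for full effect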
Conditions: RD rhabdomyosarcoma viability, CellTiter-Glo luminescence, 48 h; series mostly up to 46 µM; activity change, negative = cytotoxic: at the top concentration
How it was run: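 ATP-based luminescence (CellTiter-Glo) quantifies viability after a 48-hour exposure. Compounds are dosed across 8 or 11 final concentrations; DMSO and 2.3 µM bortezomib serve as controls.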

Row | Compound | Potency | activity change, negative = cytotoxic
16 | Cc1ccc(C(N)=O)cc1Nc1nccc(-c2cn(C(C)C)c3cnccc23)n1 | active: 16.6 µM | –
17 | COc1cc(C=CC(=O)CC(=O)C=Cc2ccc(O)c(OC)c2)ccc1O | inconclusive [cytotoxic, partial curve, poor fit] | –
18 | CC1C(=O)OC2C(O)C34C5CC(C(C)(C)C)C36C(OC(=O)C6O)OC4(C(=O)O5)C12O (stereo not drawn) | inconclusive [cytotoxic, partial curve] | –
19 | CCC[C@H](Nc1nc(-c2ccc(NC(=O)NCC)c(OC)c2)ncc1C)c1cccnc1 | inconclusive [cytotoxic, full curve, poor fit] | –
20 | CC(CN1c2ccccc2Sc2ccccc21)N(C)C (stereo not drawn) | inconclusive [cytotoxic, partial curve, poor fit] | –
21 | CN1CCc2c(n(Cc3ccc(C(=O)NO)cc3)c3ccccc23)C1 | active: 18.7 µM | –
22 | CN(C)CC/C=C1\c2ccccc2Sc2ccc(Cl)cc21 | inconclusive [cytotoxic, single point] | –
23 | Nc1ncnc2c1ncn2[C@@H]1O[C@H](CO)[C@@H](O)[C@@H]1O | active: 1.66 µM | –
24 | O=C(O)c1ccc(Nc2ncc3c(n2)-c2ccc(Cl)cc2C(c2c(F)cccc2F)=NC3)cc1 | active: 29.6 µM | –
25 | CN1CCN(CCCN2c3ccccc3Sc3ccc(S(=O)(=O)N(C)C)cc32)CC1 | inconclusive [cytotoxic, single point] | –
26 | CN1C(C(=O)Nc2ccccn2)=C(O)c2sc(Cl)cc2S1(=O)=O | inconclusive [cytotoxic, partial curve] | –
27 | Oc1c(I)cc(I)c2cccnc12 | inconclusive [cytotoxic, single point] | –
28 | Clc1ccc(Nc2nnc(Cc3ccncc3)c3ccccc23)cc1 | inconclusive [cytotoxic, single point] | –
29 | COc1cc(N2CCC(C(N)=O)CC2)ccc1Nc1nc(N)c(Cl)c(Nc2ccccc2S(=O)(=O)C(C)C)n1 | inconclusive [cytotoxic, full curve] | –
30 | CCOC(=O)N1CCN([N+]([O-])=NOc2ccc([N+](=O)[O-])cc2C#N)CC1 | active: 4.69 µM | –
31 | NC(=O)c1noc([C@H](CCCC2CCCCC2)CC(=O)NO)n1 | inconclusive [cytotoxic, partial curve] | –
32 | CCCCCN=C(N)N/N=C/c1c[nH]c2ccc(OC)cc12 | active: 7.5 µM | –
33 | C[C@H](NC(=O)C(C#N)=Cc1cccc(Br)n1)c1ccccc1 | active: 33.2 µM | –
34 | CC1=C(CC(=O)O)c2cc(F)ccc2C1=Cc1ccc(S(C)=O)cc1 (stereo not drawn) | inconclusive [cytotoxic, partial curve] | –
35 | COc1cc2nc(-c3cc(F)ccc3O)nc(N[C@@H]3CNC[C@@H]3C(C)(C)O)c2cc1OC | active: 33.2 µM | –
36 | COc1cc(Cl)cn2c(-c3cccc(NC4CNC4)n3)cnc12 | – | inactive: -27%
37 | COc1cc2ncnc(Nc3cccc(Cl)c3)c2cc1OC | inconclusive [cytotoxic, full curve, poor fit] | –
38 | CC(CN(C)C)CN1c2ccccc2CCc2ccccc21 (stereo not drawn) | inconclusive [cytotoxic, single point] | –
